{"source": "paper PMC9911399", "about": "“Two distinct binding modes provide the RNA-binding protein RbFox with extraordinary sequence specificity”", "binders": {"B1": {"name": "UAAAACG (DNA:RNA)", "RNA": "GGGAGACCGGAAUUCAGAUUGUCCUAAAACGUUAAAUCCCGUCGUAGCCACCA", "DNA 1": "CAATCTGAATTCCGGTCTCCC", "DNA 2": "TGGTGGCTACGACGGGATT"}, "B2": {"name": "ACUUGUA (DNA:RNA)", "RNA": "GGGAGACCGGAAUUCAGAUUGUCCACUUGUAUUAAAUCCCGUCGUAGCCACCA", "DNA 1": "CAATCTGAATTCCGGTCTCCC", "DNA 2": "TGGTGGCTACGACGGGATT"}, "B3": {"name": "GAAGUGG (DNA:RNA)", "RNA": "B1 RNA with U25G, A28G, A29U, C30G", "DNA 1": "CAATCTGAATTCCGGTCTCCC", "DNA 2": "TGGTGGCTACGACGGGATT"}, "B4": {"name": "CUAGAAA (DNA:RNA)", "RNA": "B1 RNA with U25C, A26U, A28G, C30A, G31A", "DNA 1": "CAATCTGAATTCCGGTCTCCC", "DNA 2": "TGGTGGCTACGACGGGATT"}, "B5": {"name": "UCACUAA (DNA:RNA)", "RNA": "B2 RNA with A25U, U27A, U28C, G29U, U30A", "DNA 1": "CAATCTGAATTCCGGTCTCCC", "DNA 2": "TGGTGGCTACGACGGGATT"}, "B6": {"name": "UACUAAU (DNA:RNA)", "RNA": "B1 RNA with A27C, A28U, C30A, G31U", "DNA 1": "CAATCTGAATTCCGGTCTCCC", "DNA 2": "TGGTGGCTACGACGGGATT"}, "B7": {"name": "CGCUUCU (DNA:RNA)", "RNA": "B2 RNA with A25C, C26G, U27C, G29U, U30C, A31U", "DNA 1": "CAATCTGAATTCCGGTCTCCC", "DNA 2": "TGGTGGCTACGACGGGATT"}, "B8": {"name": "UGACUGG (DNA:RNA)", "RNA": "B1 RNA with A26G, A28C, A29U, C30G", "DNA 1": "CAATCTGAATTCCGGTCTCCC", "DNA 2": "TGGTGGCTACGACGGGATT"}, "B9": {"name": "CACACUA (DNA:RNA)", "RNA": "B2 RNA with A25C, C26A, U27C, U28A, G29C", "DNA 1": "CAATCTGAATTCCGGTCTCCC", "DNA 2": "TGGTGGCTACGACGGGATT"}, "B10": {"name": "CACGGGA (DNA:RNA)", "RNA": "B2 RNA with A25C, C26A, U27C, U28G, U30G", "DNA 1": "CAATCTGAATTCCGGTCTCCC", "DNA 2": "TGGTGGCTACGACGGGATT"}, "B11": {"name": "GUAAUCA (DNA:RNA)", "RNA": "B1 RNA with U25G, A26U, A29U, G31A", "DNA 1": "CAATCTGAATTCCGGTCTCCC", "DNA 2": "TGGTGGCTACGACGGGATT"}, "B12": {"name": "UAAUACC (DNA:RNA)", "RNA": "B1 RNA with A28U, G31C", "DNA 1": "CAATCTGAATTCCGGTCTCCC", "DNA 2": "TGGTGGCTACGACGGGATT"}, "B13": {"name": "GGCGAGC (DNA:RNA)", "RNA": "B1 RNA with U25G, A26G, A27C, A28G, C30G, G31C", "DNA 1": "CAATCTGAATTCCGGTCTCCC", "DNA 2": "TGGTGGCTACGACGGGATT"}, "B14": {"name": "CACGAAA (DNA:RNA)", "RNA": "B1 RNA with U25C, A27C, A28G, C30A, G31A", "DNA 1": "CAATCTGAATTCCGGTCTCCC", "DNA 2": "TGGTGGCTACGACGGGATT"}, "B15": {"name": "CAGCGGC (DNA:RNA)", "RNA": "B2 RNA with A25C, C26A, U27G, U28C, U30G, A31C", "DNA 1": "CAATCTGAATTCCGGTCTCCC", "DNA 2": "TGGTGGCTACGACGGGATT"}, "B16": {"name": "CCUGGAU (DNA:RNA)", "RNA": "B2 RNA with A25C, U28G, U30A, A31U", "DNA 1": "CAATCTGAATTCCGGTCTCCC", "DNA 2": "TGGTGGCTACGACGGGATT"}, "B17": {"name": "UGGGGGC (DNA:RNA)", "RNA": "B2 RNA with A25U, C26G, U27G, U28G, U30G, A31C", "DNA 1": "CAATCTGAATTCCGGTCTCCC", "DNA 2": "TGGTGGCTACGACGGGATT"}, "B18": {"name": "AUUUGUA (DNA:RNA)", "RNA": "B2 RNA with C26U", "DNA 1": "CAATCTGAATTCCGGTCTCCC", "DNA 2": "TGGTGGCTACGACGGGATT"}, "B19": {"name": "UCUAAAA (DNA:RNA)", "RNA": "B2 RNA with A25U, U28A, G29A, U30A", "DNA 1": "CAATCTGAATTCCGGTCTCCC", "DNA 2": "TGGTGGCTACGACGGGATT"}, "B20": {"name": "GGUCCUC (DNA:RNA)", "RNA": "B2 RNA with A25G, C26G, U28C, G29C, A31C", "DNA 1": "CAATCTGAATTCCGGTCTCCC", "DNA 2": "TGGTGGCTACGACGGGATT"}}, "note": "Where a chain is given by its changes, count along the chain named. The list shows a part of the results."}
{"target": "T1, RBFOX1 RRM RbFoxmut (Fox-RRM*) (Homo sapiens, UniProt Q9NWB1 109-208, R118D;E147R;N151S;E152T)", "T1 sequence": "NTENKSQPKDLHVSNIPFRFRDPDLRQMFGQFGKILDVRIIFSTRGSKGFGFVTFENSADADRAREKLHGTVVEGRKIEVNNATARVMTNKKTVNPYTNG", "assay": "EMSA; HiTS-Eq, 1 nM pool, 10 min; buffer printed only for the single-RNA assays: 10 mM Tris pH 7.5, 150 mM NaCl, 3.4 mM EDTA, 0.001% NP-40, 30 C", "conditions": "tags: His6 N-terminal (pET28a); label: 5' 32P", "outline": "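These values rest on relative association constants, computed from read-count changes of each RNA species versus the control reaction and normalised to the cognate motif. Reads came from free RNA recovered by 8% native PAGE after purified RbFox RRM (wild type or mutant) at increasing concentrations was equilibrated for 10 min in 50 µL with 1 nM of a 5′-radiolabelled pool with 7 randomized nucleotides and DNA-annealed flanks.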"}
{"binder": "B1", "binding signal": "0.0871 KA relative to UGCAUGU"}
{"binder": "B2", "binding signal": "0.244 KA relative to UGCAUGU"}
{"binder": "B3", "binding signal": "0.074 KA relative to UGCAUGU"}
{"binder": "B4", "binding signal": "0.0743 KA relative to UGCAUGU"}
{"binder": "B5", "binding signal": "0.0904 KA relative to UGCAUGU"}
{"binder": "B6", "binding signal": "0.0783 KA relative to UGCAUGU"}
{"binder": "B7", "binding signal": "0.102 KA relative to UGCAUGU"}
{"binder": "B8", "binding signal": "0.163 KA relative to UGCAUGU"}
{"binder": "B9", "binding signal": "0.138 KA relative to UGCAUGU"}
{"binder": "B10", "binding signal": "0.0633 KA relative to UGCAUGU"}
{"binder": "B11", "binding signal": "0.0865 KA relative to UGCAUGU"}
{"binder": "B12", "binding signal": "0.0785 KA relative to UGCAUGU"}
{"binder": "B13", "binding signal": "0.0827 KA relative to UGCAUGU"}
{"binder": "B14", "binding signal": "0.0962 KA relative to UGCAUGU"}
{"binder": "B15", "binding signal": "0.0803 KA relative to UGCAUGU"}
{"binder": "B16", "binding signal": "0.0641 KA relative to UGCAUGU"}
{"binder": "B17", "binding signal": "0.0983 KA relative to UGCAUGU"}
{"binder": "B18", "binding signal": "0.258 KA relative to UGCAUGU"}
{"binder": "B19", "binding signal": "0.0829 KA relative to UGCAUGU"}
{"binder": "B20", "binding signal": "0.105 KA relative to UGCAUGU"}
